# Assay results from PubChem BioAssay (NCATS).
# Inconclusive results, whose numbers are uncertain, are shown with a selection of clear calls. For some assays here: No potency is given beside an inconclusive call; the fits are too rough. The source made the active and inactive calls. Unless noted, the call rests on the fitted dose curve; in most records, active means well fitted curve in the direction sought with a large enough effect; inconclusive means small, poorly fitted or top-dose-only effect, or another doubt; inactive means no such curve, though single readings can be large; an effect the other way counts as inactive or inconclusive.
# Legend:
# [1] = qHTS of pediatric cancer cell lines to identify multiple opportunities for drug repurposing: Primary screen for OHS-50 cells (AID 1347103); further: nearly all actives have a fitted effect of over 40% in size; further: potency means the concentration at half of the fitted maximal effect
# How it was run: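 Cells (500-1,000/well) rested 5 h, then received compounds for 48 h; metabolically active cells were measured by CellTiter-Glo luminescence. Final concentrations spanned up to 46 µM (MIPE, 11-point) or 0.59 nM-46 µM (NPC, 8-point) in primary screens, 11-point in follow-ups.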
# [2] = Primary qHTS for inhibitors of nuclear receptor binding SET domain protein 2 (NSD2) in an isogenic RCH-ACV NSD2 p.E1099K mutant (9B) (AID 1645876); further: potency means the concentration at half of the fitted maximal effect; nearly all actives have a fitted effect of over 70% in size
# [3] = Quantitative High-Throughput drug screen in 47 multiple myeloma cell lines against the NCATS MIPE library collection: AMO1_DSMZ cell viability assay (AID 1918927; further: nearly all actives have a fitted effect of over 30% in size; further: potency means the concentration at half of the fitted maximal effect)
# How it was run: (§1)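 Myeloma cells (500 per well) were exposed to MIPE 4.0 compounds by pin transfer and incubated 48 hours at 37C, 5% CO2. Viability was read as ATP by CellTiter-Glo luminescence, normalised to DMSO (100%) and media-only (0%) wells.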
# [4] = Quantitative High-Throughput drug screen in 47 multiple myeloma cell lines against the NCATS MIPE library collection: KHM11_PLB cell viability assay (AID 1918962); further: nearly all actives have a fitted effect of over 35% in size; further: potency means the concentration at half of the fitted maximal effect
# How it was run: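 CellTiter-Glo luminescence (ATP) after 48 h compound exposure, 37C/5% CO2; 500 cells/well; MIPE 4.0 approved/investigational drugs pinned in; DMSO = 100%, media only = 0% viability.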
# [5] = Quantitative High-Throughput drug screen in 47 multiple myeloma cell lines against the NCATS MIPE library collection: JIM1_ECACC cell viability assay (AID 1918964; further: potency means the concentration at half of the fitted maximal effect)
# How it was run: as §1
# [6] = Quantitative High-Throughput drug screen in 47 multiple myeloma cell lines against the NCATS MIPE library collection: INA6_PLB cell viability assay (AID 1918965; further: nearly all actives have a fitted effect of over 55% in size; further: potency means the concentration at half of the fitted maximal effect)
# How it was run: as §1
# [7] = Quantitative High-Throughput drug screen in 47 multiple myeloma cell lines against the NCATS MIPE library collection: JJN3_DSMZ cell viability assay (AID 1918966; further: nearly all actives have a fitted effect of over 50% in size; further: potency means the concentration at half of the fitted maximal effect)
# How it was run: as §1
# [8] = Quantitative High-Throughput drug screen in 47 multiple myeloma cell lines against the NCATS MIPE library collection: KMS20_JCRB cell viability assay (AID 1918973); further: nearly all actives have a fitted effect of over 45% in size; further: potency means the concentration at half of the fitted maximal effect
# How it was run: as §1
# [9] = Quantitative High-Throughput drug screen in 47 multiple myeloma cell lines against the NCATS MIPE library collection: L363_DSMZ cell viability assay (AID 1918984); further: nearly all actives have a fitted effect of over 40% in size; further: potency means the concentration at half of the fitted maximal effect
# How it was run: (§2)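 Myeloma cells (500/well) treated with MIPE 4.0 compounds for 48 h at 37 °C, 5% CO2. Viability read as ATP via CellTiter-Glo luminescence after 5 min at RT; DMSO-only wells = 100%, media-only = 0% viability.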
# [10] = Quantitative High-Throughput drug screen in 47 multiple myeloma cell lines against the NCATS MIPE library collection: OCIMY7_PLB cell viability assay (AID 1918987); further: nearly all actives have a fitted effect of over 65% in size; further: potency means the concentration at half of the fitted maximal effect
# How it was run: as §2
# [11] = Quantitative High-Throughput drug screen in 47 multiple myeloma cell lines against the NCATS MIPE library collection: VP6_DJ cell viability assay (AID 1919867); further: nearly all actives have a fitted effect of over 40% in size; further: potency means the concentration at half of the fitted maximal effect
# How it was run: as §2
# [12] = Quantitative High-Throughput drug screen in 47 multiple myeloma cell lines against the NCATS MIPE library collection: UTMC2_PLB cell viability assay (AID 1919868); further: nearly all actives have a fitted effect of over 55% in size; further: potency means the concentration at half of the fitted maximal effect
# How it was run: as §2
# [13] = Quantitative High-Throughput drug screen in 47 multiple myeloma cell lines against the NCATS MIPE library collection: MMM1_PLB cell viability assay (AID 1918976); settings: MMM1 myeloma cells viability, CellTiter-Glo, 48 h; further: potency means the concentration at half of the fitted maximal effect; nearly all actives have a fitted effect of over 35% in size
# How it was run: as §2
# [14] = biological target: N-terminal Xaa-Pro-Lys N-methyltransferase 1 (Homo sapiens) (UniProt Q9BV86); assay: qHTS Assay for Inhibitors of N-terminal methyltransferase 1 (NTMT1): LOPAC validation of the NTMT1 SAHH-coupled ThioGlo3 Assay (AID 1347143); further: potency means the concentration at half of the fitted maximal effect; nearly all actives have a fitted effect of over 70% in size
# Chain of UniProt Q9BV86 (Q9BV86 whole entry, looked up): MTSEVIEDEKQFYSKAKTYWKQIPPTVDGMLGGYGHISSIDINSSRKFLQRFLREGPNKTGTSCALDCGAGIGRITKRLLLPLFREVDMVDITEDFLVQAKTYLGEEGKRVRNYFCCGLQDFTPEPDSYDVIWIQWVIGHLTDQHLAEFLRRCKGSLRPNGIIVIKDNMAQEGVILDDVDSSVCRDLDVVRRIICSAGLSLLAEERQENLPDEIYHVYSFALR
# How it was run: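 Fluorescence read-out (excitation 340nm, emission 450nm) of SAH-derived thiol, measured via SAHH coupling and ThioGlo3, taken immediately and after a 30 min room-temperature reaction, then normalized to the background read. Enzyme: NTMT1 at 125nM; cofactor SAM 100uM in the added reagent.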
# [15] = biological target: Chromobox protein homolog 1 (Homo sapiens) (UniProt P83916); assay: qHTS Validation Assay for Inhibitors of HP1-beta Chromodomain Interactions with Methylated Histone Tails (AID 488953);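 further: loss of AlphaScreen luminescence from HP1-beta binding biotinylated H3K9me3 peptide; nearly all actives have a fitted effect of over 50% in size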
# Chain of UniProt P83916 (P83916 whole entry, looked up): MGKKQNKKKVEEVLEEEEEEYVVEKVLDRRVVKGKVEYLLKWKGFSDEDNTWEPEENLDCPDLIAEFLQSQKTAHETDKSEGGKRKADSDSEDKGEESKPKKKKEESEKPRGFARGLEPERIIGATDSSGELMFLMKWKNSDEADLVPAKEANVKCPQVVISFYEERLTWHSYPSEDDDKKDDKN
# How it was run: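 HP1-beta (50 nM) was preincubated 30 min at room temperature with biotinylated H3(1-18)K9me3 peptide (50 nM) in PBS pH 7.4, 0.01% Tween-20, then with compounds 30 min. AlphaScreen signal was read after streptavidin donor/nickel chelate acceptor beads (10 ug/mL final).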
# [16] = biological target: Lysine-specific demethylase 5B (Homo sapiens) (UniProt Q9UGL1); assay: Optimization screen for KDM5B Histone Demethylases FDH coupled qHTS against the LOPAC library (AID 1347166); settings: KDM5B demethylation, FDH-coupled NADH fluorescence (FDH is formaldehyde dehydrogenase); series mostly up to 57.5 µM; further: potency means the concentration at half of the fitted maximal effect
# Chain of UniProt Q9UGL1 (Q9UGL1 whole entry, looked up): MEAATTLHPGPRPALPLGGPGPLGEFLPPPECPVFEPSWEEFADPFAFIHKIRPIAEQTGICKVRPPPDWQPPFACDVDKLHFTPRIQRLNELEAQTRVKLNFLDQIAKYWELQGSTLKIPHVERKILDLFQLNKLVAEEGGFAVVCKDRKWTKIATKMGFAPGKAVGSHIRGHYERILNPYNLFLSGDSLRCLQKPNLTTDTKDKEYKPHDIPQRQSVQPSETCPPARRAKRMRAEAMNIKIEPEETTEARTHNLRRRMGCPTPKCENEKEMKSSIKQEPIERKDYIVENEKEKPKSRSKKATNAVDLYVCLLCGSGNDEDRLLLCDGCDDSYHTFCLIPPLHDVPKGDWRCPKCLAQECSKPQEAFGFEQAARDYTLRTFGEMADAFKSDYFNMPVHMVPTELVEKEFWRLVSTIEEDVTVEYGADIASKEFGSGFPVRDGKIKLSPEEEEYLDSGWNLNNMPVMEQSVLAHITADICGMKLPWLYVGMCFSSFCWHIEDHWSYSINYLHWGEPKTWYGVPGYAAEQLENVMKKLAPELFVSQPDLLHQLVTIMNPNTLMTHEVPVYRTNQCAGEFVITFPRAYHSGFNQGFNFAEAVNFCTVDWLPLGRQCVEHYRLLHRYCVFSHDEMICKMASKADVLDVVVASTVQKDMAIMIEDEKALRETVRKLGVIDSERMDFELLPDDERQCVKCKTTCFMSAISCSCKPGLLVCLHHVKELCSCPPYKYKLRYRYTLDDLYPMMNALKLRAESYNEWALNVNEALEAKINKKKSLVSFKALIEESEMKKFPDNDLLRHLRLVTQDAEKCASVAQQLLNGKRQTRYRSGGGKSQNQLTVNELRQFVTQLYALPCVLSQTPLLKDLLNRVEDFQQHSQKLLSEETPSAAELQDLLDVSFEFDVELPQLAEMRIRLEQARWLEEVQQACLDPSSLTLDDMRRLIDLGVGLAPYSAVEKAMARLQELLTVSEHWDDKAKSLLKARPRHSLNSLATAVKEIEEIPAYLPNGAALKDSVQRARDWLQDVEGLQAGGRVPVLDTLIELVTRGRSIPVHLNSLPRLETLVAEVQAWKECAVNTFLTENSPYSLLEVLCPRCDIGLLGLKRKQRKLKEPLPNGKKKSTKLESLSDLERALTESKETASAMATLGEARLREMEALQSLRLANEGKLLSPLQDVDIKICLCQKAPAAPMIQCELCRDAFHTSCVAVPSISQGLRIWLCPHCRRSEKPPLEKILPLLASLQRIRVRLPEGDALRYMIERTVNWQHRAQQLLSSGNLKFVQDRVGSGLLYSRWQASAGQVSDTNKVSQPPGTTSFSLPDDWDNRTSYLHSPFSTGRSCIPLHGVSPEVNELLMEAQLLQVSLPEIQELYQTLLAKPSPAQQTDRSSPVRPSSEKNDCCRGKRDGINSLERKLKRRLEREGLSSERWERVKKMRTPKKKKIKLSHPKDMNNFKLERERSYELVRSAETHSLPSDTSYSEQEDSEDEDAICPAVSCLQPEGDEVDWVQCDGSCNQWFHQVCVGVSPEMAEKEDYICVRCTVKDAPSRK
# How it was run: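 KDM5BDeltaAP (200nM final) preincubated 10 min with compound, then 12.5uM H3K4Me3, 25uM a-ketoglutarate, ascorbate, Fe(II), NAD+ and FDH added; 50mM HEPES pH 7.5, 0.01% Tween-20. NADH fluorescence (340/450 nm) change over 30 min, room temperature.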
# [17] = qHTS Assay for Identification of Small Molecule Agonists for Hypoxia Response Element Signaling Pathway (AID 914; active means well fitted activation curve with a large enough effect in the signal ratio, with a control signal flat, not every such curve was filed as active; inconclusive means small, poorly fitted or top-dose-only effect, or effect the other way, or a change in a side signal; the % refers to the signal ratio; further: potency means the concentration at half of the fitted maximal effect); settings: ME-180 HRE-bla reporter, beta-lactamase ratio, CoCl2, 17 h; activation: stronger effect = higher value
# How it was run: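 ME-180 cells carrying an HRE-driven beta-lactamase reporter were treated with compounds in a titration series plus an EC50 level of CoCl2 for 17 h at 37 degrees Celsius; CCF4 readout as the 460nm/530nm ratio gave AC50 values.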
# [18] = Quantitative high throughput screen for delayed death inhibitors of the malarial parasite plastid, 96 hour incubation (AID 488745); further: nearly all actives have a fitted effect of over 70% in size
# How it was run: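 P. falciparum carrying an integrated firefly luciferase reporter, grown in erythrocytes (2% hematocrit, 0.1% parasitemia final) in RPMI 1640/0.5% Albumax, was exposed to compound for 96 h (two generations) at 37 C, 5% CO2. Luminescence decrease indicated growth inhibition.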
# [19] = Quantitative high throughput screen for delayed death inhibitors of the malarial parasite plastid, 48 hour incubation (AID 488752); further: nearly all actives have a fitted effect of over 65% in size
# How it was run: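 Erythrocytes infected with P. falciparum carrying an integrated firefly luciferase reporter (2% hematocrit, 0.1% parasitemia final) were exposed to compounds in RPMI 1640/0.5% Albumax for 48 h at 37 C, 5% CO2. Growth inhibition was scored as reduced luminescence.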
# [20] = Nrf2 qHTS screen for inhibitors: Validation (AID 493153; active means well fitted inhibition curve with a large enough effect in the main read-out, with a control signal flat, not every such curve was filed as active; inconclusive means small, poorly fitted or top-dose-only effect, or effect the other way, or a change in a side signal; inactive means no such curve, though single readings can be large or run the other way; further: potency means the concentration at half of the fitted maximal effect)
# How it was run: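 A549 cells carrying an ARE-driven firefly luciferase reporter, in 5% FBS OPTI-MEM, were treated with compounds in concentration-response for 18-24 h at 37°C. Viability was read by CellTiter-Fluor fluorescence, then Nrf2 activity by luciferase luminescence.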
# Tags describe the fitted curve by direction and shape or compound fluorescence and quenching.
smiles,measurement,setting,value
O=c1ccn([C@@H]2O[C@H](CO)[C@H](O)[C@@H]2F)c(=O)[nH]1,Potency,[1],"inconclusive [cytotoxic, partial curve, poor fit]"
same,Potency,[2],"inconclusive [inhibitor, partial curve]"
same,Potency,[3],"inconclusive [cytotoxic, partial curve, poor fit]"
same,Potency,[4],inconclusive
same,Potency,[5],"inconclusive [cytotoxic, full curve, poor fit]"
same,Potency,[6],"inconclusive [cytotoxic, single point]"
same,Potency,[7],"inconclusive [cytotoxic, full curve, poor fit]"
same,Potency,[8],inactive
same,Potency,[9],inactive
same,Potency,[10],"inconclusive [cytotoxic, full curve, poor fit]"
same,Potency,[11],"inconclusive [cytotoxic, single point]"
same,Potency,[12],"inconclusive [rising, full curve, poor fit]"
C[C@]12CCC3=C4CCC(=O)C=C4CC[C@@H]3[C@H]1CC[C@@]2(O)CC#N,Potency,[1],inactive
same,Potency,[3],"inconclusive [cytotoxic, single point]"
same,Potency,[4],inactive
same,Potency,[5],"inconclusive [cytotoxic, partial curve, poor fit]"
same,Potency,[6],"inconclusive [rising, full curve, poor fit]"
same,Potency,[7],"inconclusive [rising, full curve, poor fit]"
same,Potency,[8],"inconclusive [rising, single point]"
same,Potency,[13],"inconclusive [rising, full curve, poor fit]"
same,Potency,[9],"inconclusive [cytotoxic, partial curve, poor fit]"
same,Potency,[10],"inconclusive [rising, full curve, poor fit]"
same,Potency,[11],"inconclusive [cytotoxic, single point]"
same,Potency,[12],"inconclusive [rising, partial curve, poor fit]"
CC(C)(NS(=O)(=O)c1ccc(Oc2ccc(F)cc2)cc1)C(=O)NO,Potency,[14],"inconclusive [inhibitor, partial curve, poor fit]"
CC(C)C(=O)OCc1cccc(OC(=O)[C@@H]2N3C(=O)[C@@H](NC(=O)Cc4ccccc4)[C@H]3SC2(C)C)c1,Potency,[1],"inconclusive [cytotoxic, partial curve, poor fit]"
CC(=O)O[C@H]1C[C@@H]2CC[C@H]3[C@H]4C[C@H]([N+]5(C)CCCCC5)[C@@H](OC(C)=O)[C@@]4(C)CC[C@@H]3[C@@]2(C)C[C@H]1N1CCCCC1,Potency,[3],inactive
same,Potency,[4],"inconclusive [cytotoxic, single point]"
same,Potency,[5],"inconclusive [rising, full curve, poor fit]"
same,Potency,[6],inactive
same,Potency,[7],"inconclusive [cytotoxic, full curve, poor fit]"
same,Potency,[8],"inconclusive [cytotoxic, full curve, poor fit]"
same,Potency,[13],"inconclusive [cytotoxic, partial curve, poor fit]"
same,Potency,[9],inactive
same,Potency,[10],inactive
same,Potency,[11],inactive
same,Potency,[12],inactive
CC(=O)OCC(=O)[C@@]1(O)CC[C@H]2[C@@H]3CCC4=CC(=O)CC[C@]4(C)[C@@H]3C(=O)C[C@@]21C,Potency,[3],inactive
same,Potency,[4],inactive
same,Potency,[5],inactive
same,Potency,[6],"inconclusive [rising, full curve, poor fit]"
same,Potency,[7],inactive
same,Potency,[8],inactive
same,Potency,[13],"inconclusive [cytotoxic, single point]"
same,Potency,[9],inactive
same,Potency,[10],"inconclusive [rising, full curve, poor fit]"
same,Potency,[11],"inconclusive [cytotoxic, full curve, poor fit]"
same,Potency,[12],"inconclusive [rising, full curve]"
C[C@H]1C[C@@H]2[C@H]([C@@H](O)C[C@@]3(C)[C@H]2CC[C@]3(O)C(=O)CO)[C@@]2(C)C=CC(=O)C=C12,Potency,[2],"inconclusive [inhibitor, full curve]"
Nc1ncnc2c1nc(Sc1ccc(Cl)cc1)n2[C@H]1OC2COP(=O)(O)O[C@@H]2C1O (some centres undefined),Potency,[15],inactive
Nc1nc2c(cnn2CCc2ccccc2)c2nc(-c3ccco3)nn12,Potency,[15],inactive
same,Potency,[14],"inconclusive [inhibitor, partial curve]"
same,Potency,[16],"inconclusive [inhibitor, partial curve, poor fit]"
Cc1cccc(C(=O)NCN2CCN(c3ccccc3C#N)CC2)c1,Potency,[17],"inconclusive [inhibitor, full curve, poor fit]"
same,Potency,[18],inactive
same,Potency,[19],inactive
same,Potency,[20],"inconclusive [inhibitor, partial curve, poor fit]"
same,Potency,[14],"inconclusive [inhibitor, partial curve]"
same,Potency,[16],"inconclusive [inhibitor, partial curve, poor fit]"
